# ± gives the standard deviation of the averaged measurements. Over roughly 33,000 sequences, “E-score (dimensionless, -0.5 to 0.5)” has its median near -0.049; the highest 2% begin near 0.37. The list shows a part of the results.
# Test system: T1, PmTbr T-box DNA-binding domain (GST fusion)
# T1 sequence: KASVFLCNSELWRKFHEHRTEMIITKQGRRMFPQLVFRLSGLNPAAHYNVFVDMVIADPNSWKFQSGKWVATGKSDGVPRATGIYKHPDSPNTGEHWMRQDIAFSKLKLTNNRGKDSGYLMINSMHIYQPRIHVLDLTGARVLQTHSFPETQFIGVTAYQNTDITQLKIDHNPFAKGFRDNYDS
# Assay: PBM E-score of 8-mer (E-score (dimensionless, -0.5 to 0.5)); Tbr is Tbrain of the sea star Patiria miniata (Pm) or the sea urchin Strongylocentrotus purpuratus (Sp); higher = stronger binding preference; most listed sequences are background and not binding sites
# Conditions: the construct has about 5 more residues each side
# How it was run: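 Each ungapped 8-mer received an enrichment E-score from the Universal PBM Analysis Suite, averaged over duplicate arrays. The proteins were Tbr T-box DNA-binding domains, covering the whole T-box plus about five flanking residues, fused to GST and expressed in BL21 E. coli at 20 °C before glutathione affinity purification. Universal Agilent oligonucleotide arrays were made double-stranded by primer extension and incubated with 200 nM protein in PBS (pH 7.5). The arrays were then scanned and quantified, and every 8-mer was scored from probe intensities.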
row,Sequence,PBM E-score of 8-mer
1,ACATCAGA,-0.216 ± 0.047
2,AGACGTGC,0.0669 ± 0.017
3,AGCCTGTA,-0.214 ± 0.078
4,GCGTAAGA,-0.0611 ± 0.0097
5,AACGGAGG,0.0408 ± 0.056
6,GACTACCC,-0.11 ± 0.006
7,AATAGGCG,0.224 ± 0.0023
8,AAAATCCA,-0.261 ± 0.046
9,AACTCTGT,-0.0925 ± 0.011
10,CGCCTACC,0.169 ± 0.044
11,ACCATCAC,0.209 ± 0.012
12,GCGAACTA,0.135 ± 0.051
13,AGCATTGC,-0.192 ± 0.046
14,CGACCGGC,-0.00745 ± 0.037
15,GGGTACAA,-0.346 ± 0.018
16,CGGCAAAG,-0.197 ± 0.0097
17,ACGTTTCA,-0.0816 ± 0.035
18,AAACATCT,-0.112 ± 0.027
19,GGTATCCA,-0.312 ± 0.0063
20,AGTAATCG,0.0908 ± 0.014
21,AACTAGCA,0.217 ± 0.026
22,GTTGGTCA,-0.143 ± 0.0084
23,ACATCCTG,0.0332 ± 0.063
24,AGATCTGC,0.0583 ± 0.037
25,AGACTGCT,-0.251 ± 0.0051

row,Sequence,PBM E-score of 8-mer
1,GCGTTCCC,0.0727 ± 0.14
2,GTCCTACA,-0.1884 ± 0.00044
3,AGCATAAG,-0.309 ± 0.017
4,ACTTGATC,-0.181 ± 0.017
5,GGACGTTA,-0.262 ± 0.07
6,AATCTGTA,-0.195 ± 0.0054
7,ATCACATC,0.195 ± 0.058
8,CCACAGTA,-0.161 ± 0.11
9,ACGGGCAG,-0.0614 ± 0.042
10,GAGATTAA,-0.0614 ± 0.094
11,ATTTGTTA,0.109 ± 0.081
12,AGAGGCTC,-0.182 ± 0.061
13,CATTAATG,-0.284 ± 0.014
14,GGGACTAC,-0.252 ± 0.024
15,CTTGGTAC,0.0262 ± 0.049
16,AATATGCC,-0.296 ± 0.028
17,CTTTTCAC,0.305 ± 0.054
18,CTGATTAA,-0.146 ± 0.062
19,CAGTAATA,-0.0753 ± 0.039
20,CGAGCGGA,-0.294 ± 0.016
21,CAATGCAC,-0.0352 ± 0.00081
22,GAGGGCGC,0.174 ± 0.043
23,CATAGATG,0.043 ± 0.013
24,GGAGAGCA,-0.183 ± 0.018
25,GACGCAGA,-0.157 ± 0.0063

row,Sequence,PBM E-score of 8-mer
1,GGAAGGAC,-0.2825 ± 0.0015
2,GAGTTAAA,-0.135 ± 0.093
3,ATCTGAAG,-0.261 ± 0.022
4,AATCGTTC,-0.17 ± 0.013
5,CCTGGGTC,-0.201 ± 0.022
6,AGTTGATG,-0.059 ± 0.034
7,AAGTACAG,0.0294 ± 0.0034
8,CGCAGCAA,0.121 ± 0.056
9,AAATTGCT,-0.121 ± 0.025
10,GGGCGCTA,0.346 ± 0.018
11,ATCCCAAG,-0.275 ± 0.07
12,ACCCACAC,0.3374 ± 0.0032
13,TGTCTAAA,-0.0695 ± 0.011
14,CGTCCAAG,-0.0278 ± 0.029
15,ATCTTATC,-0.0724 ± 0.004
16,AGATGTCG,0.161 ± 0.062
17,ACCCGCGA,0.328 ± 0.011
18,AACTCGGG,-0.2567 ± 0.0024
19,AGGCGGCA,0.12 ± 0.016
20,CCTAAGAC,-0.178 ± 0.094
21,CATGGTCG,-0.128 ± 0.012
22,GGCAACCC,-0.108 ± 0.014
23,AACACATT,0.389 ± 0.028
24,CAACACTA,0.323 ± 0.04
25,GAAATGGA,-0.0435 ± 0.084

row,Sequence,PBM E-score of 8-mer
1,ACTATGCT,0.00416 ± 0.025
2,AGTTGTCG,0.309 ± 0.0099
3,TTAAATAA,-0.0746 ± 0.12
4,ACAAGGCG,0.149 ± 0.044
5,TCGCGCAA,0.249 ± 0.028
6,ATCCGTAA,-0.0887 ± 0.078
7,CGTGGAGC,-0.239 ± 0.021
8,CAGGAATG,-0.0757 ± 0.044
9,GAGCAGAA,-0.113 ± 0.017
10,CGCGCCTA,0.31251 ± 0.00022
11,ACTTGGAT,-0.0102 ± 0.017
12,GGATAGGA,-0.243 ± 0.0065
13,TGAGTAAA,0.147 ± 0.022
14,AAAAAAAT,0.081 ± 0.092
15,GAAAACGA,-0.245 ± 0.012
16,CTCAGAGC,0.156 ± 0.053
17,TGGTAACA,0.277 ± 0.028
18,AAATTACC,0.0161 ± 0.14
19,AGAGTAGC,0.00211 ± 0.11
20,GAGAAAAC,0.0669 ± 0.12
21,ATATGAAA,-0.0947 ± 0.099
22,ATAATTGG,0.0135 ± 0.017
23,AATATAGT,0.0305 ± 0.12
24,CTGCAGTC,-0.0658 ± 0.016
25,TCCGACCA,-0.292 ± 0.071

row,Sequence,PBM E-score of 8-mer
1,TATCAGAA,-0.079 ± 0.035
2,ATGAGTTC,-0.0415 ± 0.02
3,ATAACCGG,0.0419 ± 0.051
4,AGACTATG,-0.221 ± 0.06
5,GTATTATA,-0.223 ± 0.0079
6,CCCAAGTC,-0.153 ± 0.038
7,CACAGAAA,0.0245 ± 0.04
8,GACTATGA,-0.0143 ± 0.032
9,CGGCATAA,-0.276 ± 0.0033
10,CCTCTCAC,0.362 ± 0.013
11,TTAACCAA,-0.0676 ± 0.0049
12,GAAACGCA,-0.0127 ± 0.02
13,CTCAGGGC,-0.0375 ± 0.077
14,CTGCCTCC,-0.125 ± 0.0015
15,AAAGGGGC,-0.191 ± 0.028
16,AAGCCGGG,-0.191 ± 0.04
17,TCCCTACA,-0.204 ± 0.044
18,GTAGGAAC,0.0806 ± 0.051
19,GAATACCA,-0.0703 ± 0.089
20,CGTTGTGA,0.2 ± 0.0095
21,CTTCCGCA,0.166 ± 0.028
22,CTATGGAA,-0.295 ± 0.035
23,ACATATCA,0.138 ± 0.029
24,CTGGAAAG,-0.139 ± 0.0033
25,CGAGTGGC,0.0287 ± 0.02

row,Sequence,PBM E-score of 8-mer
1,CAAACATG,-0.0089 ± 0.032
2,ACCTTGGC,0.296 ± 0.0078
3,ACGTCGTC,0.0437 ± 0.027
4,CACAATAC,0.164 ± 0.028
5,AGCCAAAA,-0.197 ± 0.016
6,AGTTCGTA,-0.0736 ± 0.051
7,TGCGTCCA,-0.135 ± 0.031
8,CTTGGTTC,-0.176 ± 0.029
9,CCCGGTAC,-0.2142 ± 0.0021
10,CCTGCACA,0.0112 ± 0.14
11,ATGCATAA,-0.123 ± 0.032
12,CTTGGTGC,0.143 ± 0.062
13,ATGCATCC,-0.123 ± 0.09
14,GAATCCTA,-0.26 ± 0.057
15,CTAGGGCA,-0.221 ± 0.044
16,AGTCTCGC,0.249 ± 0.07
17,TCTCTTCA,-0.168 ± 0.053
18,AAAGCCTA,-0.4185 ± 0.0012
19,ATGTGTTA,0.446 ± 0.0057
20,CTCCCCAG,0.0351 ± 0.044
21,TAGGTGAA,0.252 ± 0.033
22,GCGACCAA,0.0487 ± 0.036
23,CGCGTAAA,0.0685 ± 0.02
24,AACGGCAA,-0.0855 ± 0.14
25,CATTCATA,-0.125 ± 0.02

row,Sequence,PBM E-score of 8-mer
1,ACCCTAAG,-0.0287 ± 0.042
2,CTCCTCAC,0.202 ± 0.017
3,GTAGTCCA,-0.29 ± 0.033
4,GCGCGGCA,0.156 ± 0.014
5,TACCGTAA,-0.203 ± 0.021
6,AAAGGGTC,-0.358 ± 0.02
7,AGGGCACG,-0.012 ± 0.013
8,GCTATCGA,0.126 ± 0.018
9,TCAACACA,0.219 ± 0.0044
10,AGTCCAAT,-0.213 ± 0.064
11,CTCAATAA,-0.0683 ± 0.044
12,CCTCGTGC,-0.0357 ± 0.027
13,CAAGCGAC,0.00558 ± 0.05
14,GCTTAGCA,0.117 ± 0.04
15,ACTCATAG,-0.0685 ± 0.02
16,CCTCGGAA,-0.0981 ± 0.029
17,GCACTAGA,-0.0939 ± 0.0097
18,ATACGTTA,0.0272 ± 0.039
19,AACGATAG,-0.167 ± 0.079
20,CTAGCCCC,-0.175 ± 0.0022
21,ATCAGAGC,-0.243 ± 0.0061
22,ACCCTCTA,-0.0708 ± 0.043
